Experimental findings from ChEMBL document CHEMBL4888484, “Replenishing the malaria drug discovery pipeline: Screening and hit evaluation of the MMV Hit Generation Library 1 (HGL1) against asexual blood stage Plasmodium falciparum ,using a nano luciferase reporter read-out” (2022) are described below.

In all, about 150,000 compounds went through this assay and about 540 (0.36%) showed an effect of 50% or more. This is one part of the list.

For the experiment, the system named is Plasmodium falciparum. The experiment is described as follows: Primary screen in NF54 nanoGlo assay, in single point, at 2uM, 72h; a lower Z score goes with more inhibition. It is filed as functional, Erythrocyte. The settings on record: timepoint 72 hour.
By % Inhibition is commonly meant the relative decrease from the control value, in per cent. On to `CC(NC(=O)c1ccc(S(=O)(=O)NC2CCS(=O)(=O)C2)cc1)c1ccc(F)cc1F` (stereo unspecified), for which the “% Inhibition” value was determined as 2% and the Z score was -0.35.
Consider `CN(C)c1nc(CN[C@H]2CCCc3sccc32)cs1`, for which the “% Inhibition” value amounted to 5% and the Z score is on record as -0.72.
For `CCN(CCN(C)C)C(=O)c1cccc(-c2ccc3nccc(N)c3c2)c1`, in that order: 96% and -13.62.
For `O=C(O)C[C@@H]1CN(C(=O)c2ccc3c(c2)OCO3)C[C@@H]1c1c[nH]nn1` the same measures were -3% and 0.47.
For `Fc1cccc(-c2nccn2Cc2noc(Cc3ccccc3)n2)c1` the same measures were 9% and -1.14.
As for `CCN1CCN(Cc2ccc(NC(=O)CCS(=O)(=O)c3ccc4c(c3)CC(=O)N4C)cc2)CC1`, the “% Inhibition” value worked out at 7% and the Z score was -0.88.
With `COc1ncc(C(=O)N2C[C@@H](c3ccccc3)CC2(C)C)cn1`, the “% Inhibition” value is listed as 0% and the Z score is recorded as -0.05.
For the compound `Cc1ocnc1C(=O)NCc1cc2n(n1)CCCN(CC(C)C)C2`, the “% Inhibition” value stood at 4% and the Z score is given as -0.58.
For `C[C@H]1OCC[C@H]1NCc1noc2c1CC(C)(C)CC2` the same measures were 37% and -3.83.
For `CCCc1nc2ncnn2c(O)c1NC(=O)Nc1ccccc1Cl`, in that order: -8% and 1.5.
For `O=C(Cc1ccc(F)cc1)NCC1CCN(c2ncnc3[nH]ccc23)CC1` the same measures were -14% and 2.01.
Regarding `Cc1cccc(OC2CN(CCn3cnnc3)C2)c1`, the “% Inhibition” value was -12% and the Z score is 2.38.
`C[C@@H](C(=O)N(CC(F)F)c1ccc(F)cc1)n1cncn1`: the “% Inhibition” value is -17% and the Z score is listed as 2.3.
Turning to `CN(C(=O)CCc1ccncn1)C1CCN(CC(F)(F)F)CC1`, the “% Inhibition” value is -8% and the Z score is recorded as 1.21.
For the compound `CCN1CCN(c2c(CN(C(=O)Nc3cccc(Cl)c3)C3CC3)c(C)nn2-c2cccc(F)c2)CC1`, the “% Inhibition” value stood at 1% and the Z score is on record as -0.17.
For `CN1CCN([C@H]2CCOC3(CCN(C(=O)c4cccc(F)c4)CC3)C2)CC1`, in that order: -7% and 0.9.
As for `Cn1ncnc1C(=O)N1CCC(CC2CCCCC2)CC1`, the “% Inhibition” value is given as -8% and the Z score is 1.17.
For `CN(C(=O)[C@@H]1COc2ccccc2C1)c1cc(C#N)c2ccccc2n1`, in that order: -12% and 1.65.
On to `Cc1nc(C)c(CC(=O)Nc2cccc(N3C(=O)CC[C@@H]3C)c2)s1`, for which the “% Inhibition” value was -5% and the Z score was determined as 0.69.
Consider `NC(=O)C1CCN(C(=O)c2cc(N3CCOCC3)ncn2)CC1`, for which the “% Inhibition” value is reported as -7% and the Z score is recorded as 1.09.
On to `O=C(Cn1cnc2nc(N3CCOCC3)ncc2c1=O)Nc1ccc(Cl)cc1`, for which the “% Inhibition” value is -10% and the Z score is recorded as 1.14.
`CC1(C)CCCC[C@@H]1NC(=O)c1coc(S(N)(=O)=O)c1`: the “% Inhibition” value is -11% and the Z score is given as 1.24.
For `O=C(NCCc1ccccn1)N1CCN(c2nccs2)CC1` the same measures were -5% and 0.81.
As for `CCN(Cc1ccc(N(C)C)nc1)[C@H]1COC[C@@H]1O`, the “% Inhibition” value amounted to 9% and the Z score was -0.97.
For `O=C(CONS(=O)(=O)c1ccc(F)cc1)OCc1ccc(Cl)cc1` the same measures were -8% and 1.53.
For `CN1CCN([C@H]2CCN(c3nc4ccccc4s3)C[C@H]2CCCO)CC1`, the “% Inhibition” value is -3% and the Z score was determined as 0.4.
For `CC(C)CS(=O)(=O)NC[C@]1(O)CCCc2occc21`, the “% Inhibition” value was 9% and the Z score was -1.11.
For `COCCN1C[C@]2(CCCN(C(=O)c3cc[nH]c3C)C2)CCC1=O` the same measures were -9% and 0.84.
For the compound `CC(=O)c1ccc(C)cc1OCC(=O)N1CCC(C(=O)N2CCCC2)CC1`, the “% Inhibition” value was -16% and the Z score is given as 2.14.
Regarding `CC(C)(C)c1ncc(C(=O)NCc2ccc3c(n2)CCCC3)cn1`, the “% Inhibition” value is -8% and the Z score stood at 0.99.
For `CN1C(=O)c2cc(C(F)(F)F)ccc2O[C@H]2CN(Cc3ccncc3Cl)C[C@H]21`, the “% Inhibition” value stood at 12% and the Z score is -1.73.
For `Cc1cnn(CCC(=O)N2CCC[C@H](N(CCCN3CCCC3)C(=O)C(C)C)C2)c1` the same measures were -3% and 0.54.
In the case of `CC1(C)CC(=O)C2=C(C1)NC(Nc1nc3ccccc3o1)=NC21CCCCC1`, the “% Inhibition” value stood at 34% and the Z score was -3.84.
For `CCOCC(C)(C)NC(=O)c1cc(N2CCNC(=O)C2)ccn1`, in that order: -11% and 1.49.
`C#CCCN1CCN(C(=O)c2cc(=O)[nH]c3ccc(Cl)cc23)CC1`: the “% Inhibition” value turned out to be 2% and the Z score is given as -0.32.
For `Cc1nccn1C[C@H]1CCCN(Cc2ccsc2)C1`, in that order: -10% and 1.19.
For `CC(=O)c1ccc(N2CCN(C3CCCCCCC3)CC2)cc1`, in that order: -3% and 0.56.
For `CC(C)c1nsc(NC2CCCC3OCCC23)n1` (stereo unspecified), in that order: -6% and 0.85.
With `O=C(c1ccc(N2CCCC2=O)cc1)N1CCc2[nH]c(-c3ccccc3)nc2C1`, the “% Inhibition” value is recorded as 1% and the Z score was -0.24.
For the compound `Cc1ccc(C(=O)Oc2ccc(N(C(=O)c3ccc(C)cc3)S(=O)(=O)c3ccc4ccccc4c3)c3ccccc23)cc1`, the “% Inhibition” value is listed as 3% and the Z score was -0.38.
For `O=C(NC[C@H]1CC(=O)N(C2CC2)C1)N1CCC(Cc2cccc(F)c2)CC1`, in that order: -3% and 0.48.
On to `O=C(NCCCCc1nc(-c2ccccn2)cs1)[C@@H]1COCCO1`, for which the “% Inhibition” value was -11% and the Z score is 1.49.
Regarding `CC(C)(C)c1nnc(C(=O)NC[C@H]2CCC3(CCOCC3)O2)o1`, the “% Inhibition” value is reported as -10% and the Z score was found to be 1.99.
For `Clc1cccc(CN2CC(c3nc(-c4cccnc4)no3)C2)c1`, in that order: -3% and 0.6.
For `COc1ccccc1CCN1Cc2cc(NC(=O)c3cccs3)ccc2O[C@@H](C)C1=O` the same measures were 5% and -0.55.
For `Cc1cc(NC(=O)[C@@H](OC(=O)CCC2CCCC2)C(C)C)no1`, in that order: 9% and -1.03.
Take `COc1ccc(N2C(=O)c3ccccc3[C@]2(O)c2ccccc2)cc1OC`: the “% Inhibition” value turned out to be 2% and the Z score is given as -0.26.
For `C[C@@H]1CN(C(=O)c2cccn2C2CC2)CC[C@@]1(O)C1CCOCC1`, the “% Inhibition” value is -14% and the Z score came to 1.67.
For the compound `Cc1noc(CNC(=O)Nc2cccc3c2OC(C)(C)C3)n1`, the “% Inhibition” value was -3% and the Z score was 0.37.
For `Fc1ccc(NCCCO[C@H]2CCOC2)nc1` the same measures were -1% and 0.16.
In the case of `C[C@H](NCC1(Cn2ccnc2)CC1)C(=O)NC1CCCC1`, the “% Inhibition” value is listed as 2% and the Z score is -0.32.
For `Cc1cc(C)c(C(=O)O)cc1NC(=O)CCc1ccnn1C`, in that order: -7% and 1.19.
`CC(C)=CCC/C(C)=C/CNC(=O)c1cncs1`: the “% Inhibition” value is on record as 6% and the Z score is listed as -0.92.
For `C[C@H](NCc1ccccc1CN1CCCCC1)C(=O)N1CC(=O)Nc2ccccc21` the same measures were -18% and 2.05.
As to `COCCOC[C@H]1CCN(C(=O)c2ccc3[nH]ccc3c2)C1`, the “% Inhibition” value was -14% and the Z score was found to be 1.88.
For `COC(=O)c1cc(C(=O)NC2CCCCCC2)no1` the same measures were -6% and 0.99.
For the compound `COc1ccc(C(=O)N(Cc2cccc(C)c2)[C@@H]2CCCC[C@H]2NC(=O)[C@@H]2CCCN2C(=O)c2ccc(Cl)cc2Cl)cc1`, the “% Inhibition” value is given as -2% and the Z score is listed as 0.14.
For `COC(=O)c1cc2n(n1)C[C@@](C)(C(=O)NC1CCC(C)CC1)N(Cc1ccc(OC(C)C)cc1)C2=O` (stereo partly specified), in that order: 12% and -1.36.
For `COc1cc(=O)[nH]cc1C(=O)Nc1cccc(CN2CCOCC2)n1` the same measures were 5% and -0.94.
For `CC1(C)C[C@H]1C(=O)N1CC[C@@]2(C(=O)O)CCC[C@@H]12` the same measures were -8% and 1.24.
Turning to `Cn1ncc2c1NC(=O)C[C@@H]2c1cc(Cl)c2c(c1)OCO2`, the “% Inhibition” value is reported as 1% and the Z score is on record as -0.08.
For `FC(F)(F)c1nnc(CN2CCCC[C@H]2c2cn[nH]c2)s1` the same measures were -9% and 1.02.
For `C#CCN(C(=O)CCCc1ccccc1)[C@H]1CCS(=O)(=O)C1`, in that order: -7% and 0.89.
For `O=C(c1ccc2nsnc2c1)N1CCn2nc3c(c2C1)CCC3`, in that order: 17% and -2.22.
Consider `Cn1nc(C(=O)N2CCCC2)c2c1CN(C(=O)Nc1ccccc1C(F)(F)F)C2`, for which the “% Inhibition” value was -8% and the Z score worked out at 0.95.
For `COCc1noc([C@@H]2CN(S(=O)(=O)Cc3ccc(F)cc3)C[C@H]2C(N)=O)n1`, in that order: -1% and 0.15.
For `CCCN(CC(F)F)S(=O)(=O)c1cccc(Cl)c1C#N` the same measures were -19% and 2.94.
Consider `Cc1c(C(=O)N2CCC3(C2)OCCO3)cnn1CCO[C@@H]1CCCCO1`, for which the “% Inhibition” value is on record as -1% and the Z score was 0.17.
For `C=CCCN1C(=O)Nc2ccccc2S1(=O)=O` the same measures were 6% and -0.83.
For `Cc1nc2cc(C(=O)N3CCC(N4CCC(C(=O)NC5CC5)CC4)CC3)ccc2s1`, in that order: 2% and -0.27.
For `O=C(C1CCC1)N1CCN(Cc2ccc(Cl)cc2)[C@@H]2CS(=O)(=O)C[C@@H]21`, in that order: 6% and -0.73.
As to `CC[C@H]1CN(CC(C)(C)C)Cc2cc(OC)ccc2O1`, the “% Inhibition” value is reported as -14% and the Z score is 2.09.
For `CCC[C@H]1C(=O)NCCN1C(=O)c1cncnc1C` the same measures were 2% and -0.4.
For `NC(=O)c1cncc(NCc2cccnc2N2CCCCCCC2)n1`, in that order: 7% and -0.99.
For `O[C@H]1[C@H](NCc2ccc(Cl)cc2)[C@@H](c2ccc(N3CCOCC3)nc2)C[C@H]1O` the same measures were -2% and 0.32.
With `CCOc1ccc([C@H](CNC(=O)c2cccc(N3C(=O)CCS3(=O)=O)c2)N2CCOCC2)cc1`, the “% Inhibition” value is 1% and the Z score is given as -0.17.
For `CCn1cnc2c(N3CCC[C@H](c4ccncc4)C3)ncnc21` the same measures were 76% and -10.16.
In the case of `CCn1cc(NC[C@@H]2CC=CCC2)cn1`, the “% Inhibition” value worked out at 11% and the Z score is on record as -1.23.
For `COc1ccc(NC(=O)c2c[nH]nc2-c2ccccc2)cn1`, in that order: 4% and -0.76.
For `CC1(C)C(=O)Nc2cc(C(=O)NC3C4CCOC4C34CCC4)ccc21` (stereo unspecified), the “% Inhibition” value is -10% and the Z score came to 1.42.
For `COc1ncccc1C(=O)NC[C@H](C)O` the same measures were -11% and 1.09.
As to `COc1ccc(F)cc1C(NC(=O)c1nccnc1O)[C@H]1C[C@H](O)C1` (stereo partly specified), the “% Inhibition” value is on record as -9% and the Z score is listed as 1.4.
With `O=C1C[C@@H]2O[C@H](CN(Cc3ccc(F)c(F)c3)C[C@@H]3CN(CCO3)C(=O)[C@@H]3C[C@@H](CN3Cc3cccnc3)N1)[C@@H](O)[C@H]2O`, the “% Inhibition” value is recorded as 1% and the Z score was -0.11.
